The values below come from PubChem BioAssay AID1508623 (National Center for Advancing Translational Sciences (NCATS), 2021).

In all, about 48,000 compounds went through this assay and about 450 (0.94%) were called active. Not shown: some 19% with an inconclusive outcome. Calls come from the whole dose curve; as a rule, active = well fitted inhibition curve with a large enough effect; inconclusive = small, poorly fitted or top-dose-only effect; inactive = no such curve, though single readings can be large or run the other way. This is one part of the list.
Potency is the fitted concentration of half-maximal effect.

A short description of the assay: Primary qHTS for Identification of Small Molecule Inhibitors of Huntingtin Promoter Activity. Note: nearly all actives have a fitted effect of over 50% in size. Conditions: HEK293 HTT promoter firefly luciferase reporter (activity 0% = vehicle and -100% = no light), 24 h; series mostly up to 57.5 µM; activity change, negative = inhibition: at the top concentration. A digest of the protocol: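 Quantitative HTS used concentration series of up to 57.5 uM final on HEK293 luciferase reporter cells, 24 h at 37 degrees C. Readout was Dual-Glo firefly luminescence.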
On the technique in general: In qHTS, concentration-response curves come from the screen itself.
For `Cc1nc(N2C(=O)c3oc4ccccc4c(=O)c3C2c2cccc(OCCC(C)C)c2)sc1C` (configuration not stated), the activity change, negative = inhibition is inactive: 12.9% [at 11.5 µM].
Still for that read-out and setting: the result for `O=C(O)c1cn(-c2ccc(F)cc2)c2cc(N3CCNCC3)c(F)cc2c1=O` reads “inactive”; that for `COC(=O)c1nnn(CC(=O)NC(=O)Nc2cccc(C)c2C)c1C(=O)OC`, inactive: -25.3%.
On the same count and under the same terms, the same measure for `CCc1nc2ccc(C(=O)N3CCN(c4ccccc4)CC3)cc2nc1CC`: inactive: -16.5%.
In the case of `CCC(=O)Nc1nnc(SCc2cc(=O)c3cc(C)ccc3[nH]2)s1`, the “activity change, negative = inhibition” value is inactive: -29.4%.
The same measure, in the same setting: the same measure for `CCOc1cc(-c2nnc(SCC(=O)Nc3ccc(F)c(F)c3)nc2-c2ccc(OC)c(OCC)c2)ccc1OC`: inactive: 17.3%; for `Cc1c(C(=O)OC2CCCC2)[nH]c2c1C(=O)CC(c1ccc(Cl)cc1)C2` (configuration not stated): inactive: -2.48%; for `CC(=O)N1CCc2c(sc3c2c(=O)n(-c2ccccc2)c(=O)n3CC(=O)Nc2cccc(C)c2)C1`: inactive: -11.4%.
Still for that read-out and setting: the result for `CCOc1ccc(CNS(=O)(=O)c2c(C(=O)N3CCC(C)CC3)c(C)n(C)c2C)cc1OC` reads inactive: -6.9%; that for `CC(C)N(C(=O)CSc1nc2ccc(Cl)cc2[nH]1)c1ccccc1`, inactive: -29.8%; that for `COc1ccccc1CNC(=O)CCCc1nnc2n(CC(C)C)c(=O)c3sccc3n12`, inactive: -20.2%.
On the same count and under the same terms, the same measure for `COc1ccccc1CNC(=O)CCC1N=C2c3ccccc3N=C(SCc3cccc(Cl)c3)N2C1=O` (configuration not stated): inactive: -18.5%; for `COc1ccc(-c2cc3nc(-c4ccc(C)cc4)cc(C(F)(F)F)n3n2)cc1`: inactive: -3.4%; for `CCc1ccccc1NC(=O)Cn1nc(C(F)(F)F)c2c1CCCC2`: inactive: -16.4%.
As to `Cc1cc(C)c(NC(=O)CCn2c(=O)c3cccn3c3cccnc32)c(C)c1`, the “activity change, negative = inhibition” value was inactive: 0.288%.
On to `OCCN1CCN(C(c2ccccc2Cl)c2sc3nc(-c4ccco4)nn3c2O)CC1` (configuration not stated), for which the “activity change, negative = inhibition” value was inactive: -14.3%.
Same read-out and setting: the same measure for `CCCS(=O)(=O)N1CC(=O)N(c2cc(C)ccc2C)C(C)(C(=O)NC2CCCCCC2)C1` (configuration not stated): inactive: -9.71%; for `Cc1cccc(N2CCn3c2nc2c3c(=O)n(CCc3ccccc3)c(=O)n2C)c1`: inactive: 5.92%.
Same read-out and setting: the same measure for `COc1cccc(-c2cn3c(n2)sc2cc(C(=O)NCCc4ccc(OC)c(OC)c4)ccc23)c1`: inactive: -30.4%; for `N#CC1=C(N)N(c2cccc(Cl)c2)C2=C(C(=O)CCC2)C1c1cc(CN2CCOCC2)cs1` (configuration not stated): inactive: -0.925%; for `CC(C)N1C(=O)C(O)(c2c[nH]c3ccccc23)c2ccccc21` (configuration not stated): inactive: -28.2%.
As to `CSc1cccc(NC(=O)CN2CCN(Cc3ccccc3C)S2(=O)=O)c1`, the “activity change, negative = inhibition” value is inactive: -9.84%.
Consider `Cc1cc(C)cc(Oc2coc3cc(OCC(=O)NC4CCCCC4)ccc3c2=O)c1`, for which the “activity change, negative = inhibition” value was inactive: -10.5%.
With `Cc1cc(N)c(-n2cc3c(c2-c2ccc(Br)cc2)c(=O)n(C)c(=O)n3C)cc1C`, the “activity change, negative = inhibition” value is inactive: -4.23%.
Regarding `CCOc1ccc(OCC)c(NC(=O)CC(C)n2nc(C)cc2C)c1` (configuration not stated), the “activity change, negative = inhibition” value was inactive: -3.58%.
On the same count and under the same terms, the same measure for `CCOc1ccc(-c2cc(C(=O)Nc3ccc(NC(C)=O)cc3)no2)cc1`: inactive: 4.46%; for `Cc1ccc2onc(CNC(=O)NCc3cccc(Cl)c3)c2c1`: inactive: -23.4%; for `CCOc1ccc(NC(=O)CC2C(=O)N(c3ccc(C)cc3)C(=O)N2CCC2=CCCCC2)cc1` (configuration not stated): inactive: -25.9%.
Same read-out and setting: the result for `Nc1nonc1-c1nc2ccccc2n1Cc1cccc(Cl)c1` reads inactive: -13.5%.
In the case of `CC(C)c1ccc(NC(=O)c2ccc(F)c(S(=O)(=O)N3CCc4ccccc4C3)c2)cc1`, the Potency is active: 11.2 µM.
Regarding `O=C(c1cccn2c(=O)c3cc(Cl)ccc3nc12)N1CCN(c2ccccc2F)CC1`, the “activity change, negative = inhibition” value was inactive: 0%.
Same read-out and setting: the same measure for `CCOc1ccc(-n2nc(CO)c(C(=O)NCCCc3ccccc3)n2)cc1`: inactive: -19.1%.
With `COc1ccc(Cl)cc1NC(=O)Cn1cc(C(=O)c2ccc(C)cc2)c(=O)c2ccc(C)nc21`, the “activity change, negative = inhibition” value was inactive: -0.506%.
Still for that read-out and setting: the same measure for `CCOC(=O)c1ccccc1NC(=O)CSc1nc(=O)[nH]c2c1CCC2`: inactive: -11.9%.
The same measure, in the same setting: the result for `COc1ccc(CCNC(=O)c2c(O)nc3ccccn3c2=O)cc1` reads inactive: 1.36%; that for `Cc1ccccc1CN1C(=O)C2(c3ccccc31)N(c1ccccc1)C(=O)CS2(=O)=O` (configuration not stated), inactive: -6.07%.
On the same count and under the same terms, the same measure for `C=Cc1ccc(Cn2c(C)c(CNCCc3ccccc3C)c(C(=O)O)c2C)cc1`: inactive: -30.8%.
In the case of `Cc1ccn2c(=O)c(C(=O)NCCCN3CCCCC3C)c(O)nc2c1` (configuration not stated), the “activity change, negative = inhibition” value is inactive: -2.24%.
For the compound `COc1ccc2oc(=O)c(C(=O)Nc3ccc(C(=O)O)cc3)cc2c1`, the “activity change, negative = inhibition” value is inactive: 20.7%.
On the same count and under the same terms, the result for `C=CCc1cccc2cc(C(=O)Nc3ccc(F)cc3)c(=O)oc12` reads inactive: 13.1%; that for `Nc1ccc(S(=O)(=O)Nc2ccc(Cl)nn2)cc1`, inactive: 1.06%; that for `COc1ccc(OCC(=O)Nc2nnc3n2CCS3)cc1`, inactive: -3.9%.
In the case of `C=CC[N+]1([C@H]2C[C@H]3[C@@H]4CC[C@H]5C[C@H](O)[C@@H](N6CCOCC6)C[C@]5(C)[C@@H]4CC[C@]3(C)[C@H]2OC(C)=O)CCCC1`, the “activity change, negative = inhibition” value was inactive: -1.69%.
Consider `Cc1ccc(NC(=O)C(C)n2nnc3sc4c(c3c2=O)CCCC4)cc1Cl` (configuration not stated), for which the “activity change, negative = inhibition” value is inactive: 12.1%.
The same measure, in the same setting: the result for `Cc1c(Cl)cccc1NC(=O)c1ncoc1-c1ccco1` reads inactive: 24.6%; that for `CCc1ccc(NC(=O)CSc2nc3ccccc3c(=O)n2CCNC(C)=O)cc1`, inactive: 16.2%.
On the same count and under the same terms, the same measure for `Cc1ccc(C(C)(O)c2nc3ccccc3s2)c(C)c1` (configuration not stated): inactive: -7.92%; for `CCOC(=O)c1c(C)[nH]c(CCC(=O)NCc2ccccc2Cl)c1C`: inactive: -28.3%.
Turning to `COc1ccccc1NC(=O)CCN1CCCCC1`, the “activity change, negative = inhibition” value was inactive: -9.21%.
On to `CCOc1ccc(OCC)c(NC(=O)C2CCN(c3nnc(-n4cccc4)s3)CC2)c1`, for which the “activity change, negative = inhibition” value is inactive: -10%.
The same measure, in the same setting: the result for `Cc1nc(-c2ccccc2)sc1CCNC(=O)C(=O)Nc1ccc2c(c1)OCO2` reads inactive: -6.54%; that for `COc1cccc(OCCSc2nc(C)c(Cc3ccccc3)c(=O)[nH]2)c1`, inactive: -18.4%.
On the same count and under the same terms, the same measure for `Cc1ccc(N(C)C(=O)C2CCN(S(=O)(=O)c3c(C)noc3/C=C/c3c(C)cc(C)cc3C)CC2)cc1`: inactive: -15.2%; for `O=P(O)(O)OCC(O)CO` (configuration not stated): inactive: -0.688%; for `Cc1cccc(N2CCN(S(=O)(=O)c3ccc4[nH]c5c(c4c3)CCCCC5)CC2)c1C`: inactive: 7.91%.
The same measure, in the same setting: the result for `Cc1cccc(C(=O)NCC(=O)OCc2cc(=O)n3nc(C4CCCCC4)sc3n2)c1` reads inactive: -16.1%; that for `COc1ccccc1C(=O)Nc1cc2c(cc1N1CCCC1)n(C)c(=O)c(=O)n2C`, inactive: -6.93%; that for `COc1cccc(NC(=O)C2=C(C)C(=O)OC23CCN(C(C)=O)CC3)c1`, inactive: -1.01%.
Consider `CCN(CC)C(=O)Cn1nnc2sc(-c3ccccc3)cc2c1=O`, for which the “activity change, negative = inhibition” value is inactive: 0%.
Same read-out and setting: the same measure for `COc1cc2c(cc1OC)C(COc1ccc3c(C)cc(=O)oc3c1)N(C(=O)c1cc(Cl)ccc1OC)CC2` (configuration not stated): inactive: -6.27%; for `Cc1ccc(CN2CCSc3ccc(C(=O)NCC(C)c4ccccc4)cc32)cc1` (configuration not stated): inactive: 10.3%.
On the same count and under the same terms, the same measure for `CCCOc1ccc(CNC(=O)c2ccc(-n3c(C)cc4c3CCC(C)C4)cc2)cc1` (configuration not stated): inactive: -10.5%.
